# Experimental data from article PMC4336329 (PLoS ONE, 2015).
# Screen size: about 310,000 compounds; about 14,000 (4.5%) showed an effect of 50% or more. The effect is printed as a negative number. Some of the results follow.
# Biological target: human ether-à-go-go-related gene (hERG) potassium channel (human, UniProt Q12809)
# Experiment: primary screen, population patch clamp on CHO cells stably expressing hERG
# 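Further: peak tail current of the secondary pulse compared with the same well before compound.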
# Chain of human ether-à-go-go-related gene (hERG) potassium channel (Q12809 whole entry, looked up): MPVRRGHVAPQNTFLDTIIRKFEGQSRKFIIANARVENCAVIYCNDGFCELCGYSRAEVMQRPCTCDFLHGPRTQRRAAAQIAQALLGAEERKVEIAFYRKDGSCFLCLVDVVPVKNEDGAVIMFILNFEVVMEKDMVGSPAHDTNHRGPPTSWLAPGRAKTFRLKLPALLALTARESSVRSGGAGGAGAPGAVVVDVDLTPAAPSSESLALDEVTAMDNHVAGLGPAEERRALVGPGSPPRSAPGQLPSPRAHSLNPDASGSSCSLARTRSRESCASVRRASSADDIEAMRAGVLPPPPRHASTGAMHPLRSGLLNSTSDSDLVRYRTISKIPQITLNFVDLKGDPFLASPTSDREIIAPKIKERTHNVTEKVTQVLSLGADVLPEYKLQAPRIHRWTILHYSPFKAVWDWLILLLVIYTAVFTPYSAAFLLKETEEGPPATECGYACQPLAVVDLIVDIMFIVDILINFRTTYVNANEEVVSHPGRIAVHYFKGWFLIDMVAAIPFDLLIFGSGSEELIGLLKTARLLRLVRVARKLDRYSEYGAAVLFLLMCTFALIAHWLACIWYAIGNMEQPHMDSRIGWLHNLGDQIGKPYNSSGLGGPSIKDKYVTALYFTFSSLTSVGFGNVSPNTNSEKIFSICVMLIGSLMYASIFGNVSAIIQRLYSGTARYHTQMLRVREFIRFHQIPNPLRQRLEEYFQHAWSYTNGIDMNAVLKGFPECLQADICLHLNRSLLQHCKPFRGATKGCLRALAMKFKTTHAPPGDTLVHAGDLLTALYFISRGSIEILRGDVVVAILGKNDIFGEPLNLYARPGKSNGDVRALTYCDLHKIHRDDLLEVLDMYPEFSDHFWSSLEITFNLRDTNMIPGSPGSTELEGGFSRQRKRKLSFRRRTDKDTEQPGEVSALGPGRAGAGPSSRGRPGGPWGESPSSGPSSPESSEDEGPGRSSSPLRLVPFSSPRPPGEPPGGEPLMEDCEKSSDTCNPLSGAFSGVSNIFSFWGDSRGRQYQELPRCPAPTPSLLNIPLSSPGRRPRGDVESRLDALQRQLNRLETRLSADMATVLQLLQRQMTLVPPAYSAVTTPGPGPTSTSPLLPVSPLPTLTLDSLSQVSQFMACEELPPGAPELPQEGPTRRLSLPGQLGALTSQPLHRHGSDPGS
row,SMILES,"hERG current change (%, negative = inhibition) at 10uM"
1,Cc1ccc(C)c(C(=O)CCC(=O)Nc2ccc(F)cc2)c1,14.8%
2,CCC(C)n1c(O)c(C=NCCN2CCOCC2)c(=O)[nH]c1=S (centres unmarked),13.5%
3,Cc1ccc(OCc2cc(C(=O)N3CCN(c4ccccc4)CC3)no2)cc1C,-0.317%
4,Cc1ccc(/C=N/NC(=O)c2nnn(-c3nonc3N)c2CSc2ccccc2)s1,20.7%
5,O=C(CSc1nnnn1-c1ccc(Cl)c(C(=O)O)c1)NC(c1ccccc1)c1ccccc1,19.8%
6,CC1CCCC(NC(=O)C2CCC(CNc3c(N4CCCC4)c(=O)c3=O)CC2)C1C (centres unmarked),1.97%
7,O=C(O)CNC(=O)/C(=C\c1cccc([N+](=O)[O-])c1)NC(=O)c1ccco1,15.7%
8,CC1CCCC(C)N1CCCNC(=O)c1cc2c(s1)-c1ccccc1OC2 (centres unmarked),-69.9%
9,COc1cc(/C=N/N(C)c2ccccc2)ccc1O,16.9%
10,COC(=O)C1=C(C)N(c2ccccc2)/C(=C/c2ccco2)C1=O,27.8%
11,Cc1ccccc1NC(=O)c1cc(-c2ccccc2)n(CCCN2CCOCC2)c1C,-32.3%
12,CC(=O)N/C(=C\c1ccccc1)C(=O)OC(C)C(=O)N(C)c1ccccc1 (centres unmarked),-2.47%
13,CCOc1cccc2cc(C(=O)Nc3nccs3)c(=O)oc12,9.58%
14,Nc1nc(-c2cccs2)c(-c2cccs2)s1,4.19%
15,Cc1ccc(OCCn2cc(/C(N)=N/O)c3ccccc32)cc1C,-7.06%
16,N#CCCN(C(=O)COc1ccc(Br)cc1F)c1ccc(F)cc1,-25%
17,O=C1NC(=O)C(=C/C=C/c2coc3ccc(Br)cc3c2=O)C(=O)N1,2.76%
18,COc1cc(OC)cc(C(=O)NNC(=S)NC2CC2)c1,23.9%
19,COCCNC(=O)Cn1nc(C)c([N+](=O)[O-])c1C,-7.7%
20,CCCOc1ccc(-c2nn(-c3ccccc3)cc2/C=C2\SC(=S)N(C3CCS(=O)(=O)C3)C2=O)cc1 (centres unmarked),12%
21,CCOc1cc(C(=O)Nc2ncn[nH]2)cc(OCC)c1OCC,-2.12%
22,Cc1ccc(NC2=NC3(CCCC3)N=C(N)N2)c(C)c1,48.9%
23,CCOc1ccccc1NC(=S)N1CCN(c2ccc(O)cc2)CC1,8.51%

row,SMILES,"hERG current change (%, negative = inhibition) at 10uM"
1,COc1ccc(C(C)=O)cc1Cn1c(=O)cc(C)[nH]c1=O,13.2%
2,COc1ccccc1N1C(=NC(=O)C(C)Oc2ccccc2)SC2CS(=O)(=O)CC21 (centres unmarked),-14.2%
3,O=C(COC(=O)c1ccc2c(c1)OCO2)Nc1ncc(Cl)cc1Cl,-8.15%
4,Fc1ccc(CN2CCN(c3ccc(Cl)cc3)CC2)cc1,-13.6%
5,c1coc(CSCc2cn3cccnc3n2)c1,6.5%
6,NC(=O)c1ccc(N2CCN(S(=O)(=O)c3ccccc3)CC2)c([N+](=O)[O-])c1,-58.7%
7,CCOCC(=O)Nc1cc(-c2cn3cccnc3n2)ccc1C,6.69%
8,COC(=O)c1ccc(C(=O)Nc2ccc3c(c2)C(=O)NC3=O)cc1,11.9%
9,COc1ccc(OCC(=O)Nc2ccccc2C(=O)NC2CC2)cc1,-13.4%
10,COC(=O)c1c(NC(=O)C2CC2)sc2c1CCN(C(C)=O)C2,-25.7%
11,O=C(O)C(=O)O.O=S(=O)(c1ccc2ccccc2c1)N1CCN(C2Cc3ccccc3C2)CC1,-21.1%
12,CCOC(=O)CSc1nnc(NC(=O)C2CC(=O)N(c3ccc(F)cc3)C2)s1 (centres unmarked),5.4%
13,O=C(CSc1nc2ccsc2c(=O)n1-c1ccccc1)N1CCCC1,0.514%
14,Cc1ccc(C(=O)NCCc2ccccn2)cc1S(=O)(=O)N1CCOCC1,-11%
15,CCn1c(C)nc2cc(C(=O)N/N=C/c3ccc(OC)c(O)c3)ccc21,3.24%
16,CC(C)Oc1ccc(CCN)cc1Cl.Cl,-6.32%
17,CC(NS(=O)(=O)c1ccc(F)cc1)C(=O)Nc1ccc2c(c1)OCCO2 (centres unmarked),13.2%
18,Cc1ccc(C)c(S(=O)(=O)NCC(=O)N2CCCC2)c1,11.1%
19,Cc1cc(-c2cccnc2)c(C#N)c(SCC#N)n1,-4.94%
20,CCOC(=O)c1cc(NC(=O)N(C)C2CCCCC2)c(C)nc1C,10.6%
21,O=C(Nc1ccc(F)cc1)C(Sc1nnc2ccccn12)c1ccccc1 (centres unmarked),4.56%
22,O=S(=O)(c1cccc(C(F)(F)F)c1)N1CCN(c2ccccc2)CC1,-14.4%
23,COc1ccc(OC)c(CNC(=O)CCC(=O)N2Cc3ccccc3Oc3ncccc32)c1,-26.6%

row,SMILES,"hERG current change (%, negative = inhibition) at 10uM"
1,Cc1ccc(NC(=O)COC(=O)c2ccccc2Nc2ccccc2)cc1,7.83%
2,COC(=O)n1ccc(C(=O)Nc2ccccc2F)n1,-8.09%
3,Cc1nc(Nc2ccc(F)cc2)[nH]c(=O)c1CCC(C)C,-1.15%
4,CCN1C(=O)N(CC)C2C1N(CO)C(=O)N2CO (centres unmarked),16.9%
5,CCn1c(O)c(C=Nc2cc(Cl)ccc2Cl)c(=O)n(CC)c1=O,3.69%
6,COc1ccc(COc2cc(-c3cccc(OC)c3)nc3ccc(NC(=O)c4ccc(Cl)cc4)cc23)cc1,8.61%
7,COc1cc(/C=N/NC(=S)Nc2cccc(S(=O)(=O)N(C)C)c2)cc(OC)c1O,-20.5%
8,CC(C)(C)c1csc(NC(=O)c2ccc3nccnc3c2)n1,-57.2%
9,Cc1ccc2sc(N3CCN(C(=O)C4=COCCO4)CC3)nc2c1C,-15.6%
10,CCCN(CCC)CCNC(=O)Cn1cnc2sc(C)c(S(=O)(=O)N3CCOCC3)c2c1=O,11.3%
11,CCCCOc1ccc(N=Cc2ccc[nH]2)cc1,24.5%
12,O=C(NNC(=O)c1ccccc1F)c1ccc2[nH]c(=O)c(=O)[nH]c2c1,11.1%
13,Cc1cc(NCc2ccccc2Cl)n2nnnc2n1,19.6%
14,O=C(Nc1cccc(-c2nc3cccnc3s2)c1)c1cccnc1Cl,-21.8%
15,O=C(Nc1ccncc1)c1ccccc1-c1ccccc1,6.47%
16,COc1ccc(-c2cc(C(F)(F)F)nc(N3CCN(Cc4ccccc4)CC3)n2)cc1OC,21.2%
17,COc1ccc(C2c3ccsc3CCN2C(=O)NC(C)(C)C)cc1 (centres unmarked),-10.2%
18,CS(=O)(=O)NCc1nnc(SCC(=O)NC2CCCCC2)n1-c1ccc(F)cc1,11.6%
19,Nc1c(C(=O)CSc2nnc(Nc3ccc(F)cc3)s2)c(=O)[nH]c(=O)n1C1CC1,0.202%
20,CCN1CCCC1CNC(=O)c1[nH]c2ccc(OC)cc2c1C (centres unmarked),-51.2%
21,Cc1onc(C(=O)Nc2ccccc2C(F)(F)F)c1[N+](=O)[O-],18.6%
22,O=C1CN(C(=O)COC(=O)c2cccnc2Cl)c2ccccc2N1,14.5%
23,CSc1nnc(-c2ccc([N+](=O)[O-])cc2)o1,16.8%

row,SMILES,"hERG current change (%, negative = inhibition) at 10uM"
1,O=C(NCC1CCCO1)c1ccc(NC(=O)c2cccc(Br)c2)cc1 (centres unmarked),16.4%
2,Cc1ccc(NC(=O)c2ccc3c(=O)n4c(nc3c2)CCCCC4)cc1F,-24.6%
3,COc1cccc(CC(=O)Nc2nc3c(s2)C(=O)CC(C)(C)C3)c1,5.12%
4,O=[N+]([O-])c1ccc(Oc2ccc(S(=O)(=O)N3CCOCC3)cc2)cc1,-63.4%
5,CCc1ccc(Nc2ncc3c(n2)CC(C)(C)CC3=O)cc1,-6.91%
6,Cc1cc(C)c(NC(=S)N(Cc2cccnc2)Cc2ccco2)c(C)c1,-4.95%
7,Cc1cc2cc(C)c(SCC(=O)NCc3ccco3)nc2cc1C,18.8%
8,C=C1CCN(C(C)C(=O)OC)S(=O)(=O)c2ccccc21 (centres unmarked),0.0558%
9,Cn1nc(C(=O)NCC2CCCO2)c2ccccc2c1=O (centres unmarked),-3%
10,S=C(NCC1CCCO1)NC1CC1 (centres unmarked),18.5%
11,Cc1cccn2c(CNCCSc3nccn3C)c(C(=O)N3CCCCC3)nc12,3.25%
12,COc1cccc(C(=O)Nc2sc3c(c2C#N)CCN(C(C)=O)C3)c1,9.9%
13,Cc1ccccc1C(C(=O)NCc1ccco1)N(CC1CCCO1)C(=O)Cn1nnc2ccccc21 (centres unmarked),0.321%
14,c1ccc(-n2nnnc2SCCCSc2nc3ccccc3s2)cc1,14.4%
15,COc1ccccc1NC(=O)CCN1C(=O)/C(=C/c2cc(OC)c(OC)c(OC)c2)SC1=S,13.8%
16,COc1cc(OC)cc(C(=O)OCC(=O)Nc2ccc(N3CCCCC3)cc2)c1,0.0136%
17,Cc1nc(S(=O)(=O)c2ccc(Cl)cc2)c(NCc2ccccc2)o1,17.4%
18,Cc1cc(NC(=O)CSc2nnc(-c3ccoc3C)n2N)no1,19.7%
19,COc1ccc(-c2csc(NC(=O)Cn3nc(C)cc3C)n2)cc1,12.9%
20,CCOC(=O)c1ccc(NC(=O)CSc2ccc(-c3ccncc3)nn2)cc1,19.4%
